According to PubChem BioAssay AID1794842 (National Center for Advancing Translational Sciences (NCATS), 2023):
In all, about 2,800 compounds went through this assay and fewer than 10 were called active. The call rests on the fitted dose curve; in most records, active means well fitted curve in the direction sought with a large enough effect; inconclusive means small, poorly fitted or top-dose-only effect, or another doubt; inactive means no such curve, though single readings can be large or run the other way. The list shows a part of the results.

The compounds below were run against Metallo-beta-lactamase type 2 (Klebsiella pneumoniae) (UniProt C7C422) (assay: qHTS to identify inhibitors of the New Delhi Metallo-beta-lactamase (NDM): Meropenem screen against the machine-based learning selections.). Settings: Purified NDM-1, meropenem hydrolysis, absorbance 300 nm; at 38.4 µM (top of the series) unless noted.
Chain of UniProt C7C422 (C7C422 whole entry, looked up): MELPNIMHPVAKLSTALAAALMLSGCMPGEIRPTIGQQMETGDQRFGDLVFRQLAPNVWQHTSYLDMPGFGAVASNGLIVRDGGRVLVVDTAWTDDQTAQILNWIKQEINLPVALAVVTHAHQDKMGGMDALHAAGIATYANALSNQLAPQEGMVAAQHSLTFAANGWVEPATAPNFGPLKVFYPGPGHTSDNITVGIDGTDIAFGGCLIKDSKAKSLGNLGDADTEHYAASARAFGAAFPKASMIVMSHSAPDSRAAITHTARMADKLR
Procedure, shortened: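 NDM-1 (2 nM final) in 50 mM HEPES pH 7.0, 1 uM Zn2SO4, 0.01% Tween20 was preincubated with compounds for >30 min. Nitrocefin (16.7 uM final) was read at 485 nm after 15 min, and meropenem (50 uM final) at 300 nm after 30 min.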
Further: % of control where 0% means no effect.

Activity change, negative = inhibition, inactive:
COc1ccc(-c2ccnc(N[C@H]3CO[C@H]4[C@@H]3OC[C@H]4OC(=O)Nc3cccc(OC)c3)n2)cc1 -2.55%
Clc1ccc(-c2cnc3n2C[C@H](CNCc2ccc4c(c2)OCO4)OC3)cc1 17.4% [at 57.5 µM]
Cc1cc(C)n2nc(C(=O)N3CCC(Cc4cccc(C(N)=O)c4)C3)nc2n1 (stereo unspecified) 0.171%
Cc1ccc2c(c1)N1C(=O)OC[C@@H]1CCN(Cc1cccc(Cl)c1)C2 0.512% [at 57.5 µM]
CCOCCN1C(=O)COC[C@@H]1[C@H](O)c1ccc(NC(=O)Cc2ccccc2)cc1 -0.552% [at 57.5 µM]
CN(Cc1cc2n(n1)CCNC2)Cc1nc2ccsc2c(=O)[nH]1 22.7%
CSCC(=O)N1C[C@@H](NC(=O)NC2CCCCC2)C[C@H]1C(=O)N[C@H](Cc1c[nH]c2ccccc12)C(N)=O 0.14%
CCNC(=O)NC[C@@H]1C=C(C)[C@H](CC(=O)NCc2ccccn2)C[C@H]1C(C)C 20.6% [at 57.5 µM]
Cc1cc(C(=O)N2CC(N(C3CCOCC3)S(C)(=O)=O)C2)nn1C 0.0305%
O=C(Cc1ccccc1)Nc1ccnn1C1CCN(Cc2ccc3cccc(F)c3n2)CC1 1.18%
Cc1ncccc1C(=O)N1CCC(N2CC3CC(C2)[C@H]2CCCC(=O)N2C3)CC1 (stereo partly specified) 0.935%
CN(Cc1ccsc1)CC1(O)CCCN(CCCc2ccccc2)C1=O (stereo unspecified) 3.38%
COc1ccc(-c2nnc3n2CCN(C(=O)N(C)C)C3)cc1 2.62% [at 57.5 µM]
Cn1ncc(N2CCC(CNC(=O)c3cccc(-c4ncc[nH]4)c3)C2)cc1=O (stereo unspecified) 5.13%
Cn1c(=O)[nH]cc(CC(=O)N2CCCC(c3cccc(C(=O)O)c3)C2)c1=O (stereo unspecified) 2.14%
C=CCN(C)C(=O)[C@@H](C)C1CC[C@@]2(C)Cc3sc(NCCCC)nc3[C@@H](C)[C@@H]2[C@H]1O (stereo partly specified) -1.93% [at 57.5 µM]
O=[N+]([O-])c1cccc(-c2noc([C@@H]3C[C@@H](O)CN3Cc3ccccc3)n2)c1 2.26% [at 57.5 µM]
COc1ccc(C(=O)N2CCC(c3nc(C4CCOCC4)no3)C2)cc1OC (stereo unspecified) -1.16%
COCCN1C[C@H]2CN(C(=O)c3ccccc3OC)CCN2C1=O -0.628% [at 57.5 µM]
c1ccc(-c2cn3c(n2)CO[C@@H](CNCc2cccs2)C3)cc1 -1.46% [at 57.5 µM]
COc1ccc(-c2ccc3ncc(Nc4ccc(CCO)cc4)n3n2)cn1 12.6% [at 57.5 µM]
